PubChem BioAssay AID1468 (National Center for Advancing Translational Sciences (NCATS), 2008)
In all, about 280,000 compounds went through this assay and about 1,100 (0.39%) were called active. Inconclusive results, whose numbers are uncertain, are shown with a selection of clear calls. Calls come from the whole dose curve; as a rule, active = well fitted inhibition curve with a large enough effect; inconclusive = small, poorly fitted or top-dose-only effect, or effect the other way; inactive = flat fitted curve, though single readings scatter. Potencies of inconclusive entries are left out as doubtful fits.

Each compound was assayed against Microtubule-associated protein tau (Homo sapiens) (UniProt P10636) (assay: qHTS for Inhibitors of Tau Fibril Formation, Fluorescence Polarization). Conditions: K18 P301L tau heparin fibrillization, Alexa594 FP, 6 h; series mostly up to 57.7 µM; activity, negative = inhibition: at the top concentration.
Outline: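 Steps: dispense K18 P301L tau (15 uM plus 0.24 uM Alexa 594 tracer, final) in pH 7 sodium acetate; add compound; add heparin (20 uM final); incubate 6 hr, 37 C; add ThT (30 uM final); after 1 hr ambient, read FP.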
% is set by controls: 0 for no effect and ±100 for the full control effect; potency is the fitted concentration of half-maximal effect; tags give direction and shape of the fitted curve.
Note: nearly all actives have a fitted effect of over 55% in size.

Sequence of UniProt P10636 (P10636 whole entry, looked up): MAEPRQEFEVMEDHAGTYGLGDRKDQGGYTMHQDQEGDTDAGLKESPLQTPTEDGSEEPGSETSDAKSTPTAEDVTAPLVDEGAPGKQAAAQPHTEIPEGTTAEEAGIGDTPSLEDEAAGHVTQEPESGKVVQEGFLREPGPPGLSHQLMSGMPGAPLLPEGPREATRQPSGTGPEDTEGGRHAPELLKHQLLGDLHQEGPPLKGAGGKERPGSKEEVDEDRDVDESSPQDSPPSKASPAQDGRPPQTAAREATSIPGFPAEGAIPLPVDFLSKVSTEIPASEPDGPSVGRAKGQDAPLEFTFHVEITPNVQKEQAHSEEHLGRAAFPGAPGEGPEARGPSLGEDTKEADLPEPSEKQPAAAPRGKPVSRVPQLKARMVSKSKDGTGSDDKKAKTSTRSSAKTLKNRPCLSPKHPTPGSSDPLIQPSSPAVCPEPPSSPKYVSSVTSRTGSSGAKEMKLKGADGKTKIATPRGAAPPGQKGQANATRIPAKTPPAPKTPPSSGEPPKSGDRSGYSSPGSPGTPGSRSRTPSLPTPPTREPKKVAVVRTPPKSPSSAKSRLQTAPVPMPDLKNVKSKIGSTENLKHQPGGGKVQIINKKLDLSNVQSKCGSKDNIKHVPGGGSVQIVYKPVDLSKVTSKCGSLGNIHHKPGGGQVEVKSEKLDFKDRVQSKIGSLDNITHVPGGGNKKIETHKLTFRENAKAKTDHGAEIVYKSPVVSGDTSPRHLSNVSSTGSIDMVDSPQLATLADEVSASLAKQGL

| SMILES | Potency | activity, negative = inhibition |
| --- | --- | --- |
| Cc1ccc(C(=O)c2no[n+]([O-])c2C(=O)c2ccc(C)cc2)cc1 | inconclusive [inhibitor, partial curve] |  |
| S=C(Nc1ccc(Cl)cc1)NC1CC2CCC(C1)N2Cc1ccccc1 (stereo unspecified) | inconclusive [inhibitor, single point] |  |
| CCC(=O)OCCNc1nc(-c2ccccc2)nc2ccccc12 | inconclusive [inhibitor, single point] |  |
| O=C(CN1C(=O)NC(CCc2ccccc2)C1=O)NC1CC1 (stereo unspecified) |  | inactive: 0.243% |
| Cc1cccc(NC(=O)c2nc[nH]c2C(=O)N[C@@H](C)C(=O)OCc2ccccc2)c1 | active: 14.1 µM |  |
| Cc1ccc(OCC(=O)NC(=S)Nc2cccc(NC(=O)c3ccc(Cl)cc3Cl)c2)cc1 | inconclusive [inhibitor, partial curve] |  |
| COc1ccc(NC(=O)C(NC(=O)Cc2cccs2)c2ccccc2)cc1 (stereo unspecified) | inconclusive [inhibitor, single point] |  |
| Cc1ccc(S(=O)(=O)N(CC(=O)N=Nc2c(O)[nH]c3ccccc23)c2ccc(C)c(C)c2)cc1 |  | inactive: -12.1% |
| COC(=O)c1cc(OC)c(OC)cc1NC(=O)CSc1nnnn1Cc1ccccc1 |  | inactive: 0.885% |
| c1ccc(-c2noc(-c3cccnc3NCc3ccco3)n2)cc1 |  | inactive: -4.01% |
| O=C(CSc1ccccn1)Nc1nc2ccc(Br)cc2s1 | inconclusive [inhibitor, single point] |  |
| CCOC(=O)c1c(NC(=S)Nc2cccc(C)c2)sc2c1CC(C)(C)SC2 |  | inactive: 3.24% |
| Cc1c(-c2cccc(NC(=O)Nc3ccc(Cl)cc3)c2)nc2ncccn12 | active: 20 µM |  |
| CS(=O)(=O)N1N=C(c2cccs2)CC1c1ccc(Cl)o1 (stereo unspecified) |  | inactive: -5.39% |
| N#Cc1ccc(CS(=O)(=O)c2ccccc2)cc1 | inconclusive [inhibitor, partial curve] |  |
| COc1ccc(Nc2nc(-c3cccs3)nc3ccccc23)c(OC)c1 |  | inactive: -6.42% |
| O=C(CSc1nnc(-c2ccccc2F)o1)Nc1cccc(C(F)(F)F)c1 | inconclusive [inhibitor, full curve] |  |
| COc1cc(OC)c(-c2nn3c(-c4ccco4)nnc3s2)cc1OC | inconclusive [inhibitor, single point] |  |
| CCn1c2ccccc2c2cc(NC(=O)COC(=O)c3cc(OC)c(OC)cc3OC)ccc21 | inconclusive [activator, partial curve, poor fit] |  |
| COc1ccc(C2C(C(=O)Nc3ccc(Cl)cc3)=C(C)Nc3nc(SCc4cccc(C)c4)nn32)cc1OC (stereo unspecified) | inconclusive [inhibitor, partial curve] |  |
| COc1cc(O)oc1C=Nc1ccc(Cl)cc1 | inconclusive [inhibitor, single point] |  |
| Cc1c(C)c2c(c(C)c1O)CC[C@@](C)(CCC[C@H](C)CCC[C@H](C)CCCC(C)C)O2 | inconclusive [activator, partial curve, poor fit] |  |
| CCCCC(CC)COC(=O)c1ccccc1O (stereo unspecified) |  | inactive: 3.83% |

| SMILES | Potency | activity, negative = inhibition |
| --- | --- | --- |
| Cc1cc(N/C=C/C(=O)c2cccs2)ccc1F |  | inactive: -5.02% |
| Cc1ccc2nc(/C(C#N)=C\c3cc(C)n(-c4cccc([N+](=O)[O-])c4)c3C)[nH]c2c1 | inconclusive [activator, full curve, poor fit] |  |
| O=C(NC1CCS(=O)(=O)C1)c1cccnc1 (stereo unspecified) | inconclusive [inhibitor, full curve, poor fit] |  |
| CC(C)c1ccc2[nH]c(O)c(N=NC(=O)c3cccc(S(=O)(=O)Nc4ccccc4Cl)c3)c2c1 |  | inactive: -2.72% |
| CCOC(=O)c1ccc(NC(=O)c2nc[nH]c2C(=O)NCC(=O)OC(C)(C)C)cc1 | inconclusive [inhibitor, partial curve] |  |
| CC(O)CNCCOc1ccccc1OCc1ccccc1 (stereo unspecified) |  | inactive: -4.36% |
| c1ccc(-c2n[nH]c(-c3ccccn3)n2)cc1 |  | inactive: 0.391% |
| Cc1cc(Cl)ccc1OCC(=O)OCC(=O)Nc1ccc(F)c([N+](=O)[O-])c1 | inconclusive [inhibitor, partial curve] |  |
| O=C(NCc1cccnc1)NC1(C(F)(F)F)Oc2ccccc2O1 |  | inactive: -3.42% |
| COc1ccccc1-c1cnnc(N/N=C/c2ccc(-c3cccc(Br)c3)o2)n1 |  | inactive: -0.021% |
| Cc1ccc(NC(=O)c2c(C)nc3sc(C(=O)Nc4ccc(F)cc4)c(N)c3c2-c2ccc(C)o2)c(C)c1 |  | inactive: -5.89% |
| COc1ccccc1-n1c(/C=C/c2c(C)n(C)c3ccccc23)nc2ccccc2c1=O |  | inactive: 8.92% |
| COc1cccc(NC(=O)c2cnn(-c3ccccc3)c2-n2cccc2)c1 |  | inactive: 0.226% |
| CC(Oc1ccc(Cl)cc1Cl)c1nc(-c2ccc(NC(=O)c3cccnc3)cc2)no1 (stereo unspecified) | active: 15.8 µM |  |
| CC(C)c1ccc(NC(=O)c2cc(S(=O)(=O)NCc3ccccc3Cl)ccc2F)cc1 | inconclusive [inhibitor, partial curve] |  |
| O=C(/C=C/c1ccccc1Cl)NC(=S)Nc1ccccc1C(=O)NC1CCCCC1 |  | inactive: -3.54% |
| COc1ccc(-c2n[nH]c3c2C(c2ccc(O)cc2)N(c2ccc(Br)cc2)C3=O)cc1 (stereo unspecified) | inconclusive [inhibitor, partial curve] |  |
| O=[N+]([O-])c1cc(C(F)(F)F)ccc1NCCNC(=S)Nc1ccc(Cl)cc1 | active: 20 µM |  |
| O=C(N/N=C/c1ccc(-c2ccccc2[N+](=O)[O-])o1)c1cncc(Br)c1 | inconclusive [inhibitor, partial curve] |  |
| CSc1cccc(NC(=O)N2CCN(c3cc(-c4noc(C)n4)ccc3C)CC2)c1 | inconclusive [inhibitor, full curve] |  |
| CN(C)c1ccc(CC2C(=O)Nc3ccccc32)cc1 (stereo unspecified) | inconclusive [inhibitor, partial curve, poor fit] |  |
| Clc1ccc2nc(SCc3nnc(-c4ccccc4)o3)[nH]c2c1 | inconclusive [inhibitor, partial curve, poor fit] |  |
| COC(=O)C1=C(C)N(Cc2ccco2)C(=O)/C1=C\c1ccc([N+](=O)[O-])cc1 | inconclusive [inhibitor, partial curve] |  |
